{"source": "paper PMC4336329", "about": "(PLoS ONE, 2015)", "note": "The campaign covered roughly 310,000 compounds. About 14,000 (4.5%) showed an effect of 50% or more. The effect is printed as a negative number. The list shows a part of the results.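 Note: peak tail current of the secondary pulse compared with the same well before compound.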", "data": [{"target": "human ether-à-go-go-related gene (hERG) potassium channel (human, UniProt Q12809)", "sequence (Q12809 whole entry, looked up)": "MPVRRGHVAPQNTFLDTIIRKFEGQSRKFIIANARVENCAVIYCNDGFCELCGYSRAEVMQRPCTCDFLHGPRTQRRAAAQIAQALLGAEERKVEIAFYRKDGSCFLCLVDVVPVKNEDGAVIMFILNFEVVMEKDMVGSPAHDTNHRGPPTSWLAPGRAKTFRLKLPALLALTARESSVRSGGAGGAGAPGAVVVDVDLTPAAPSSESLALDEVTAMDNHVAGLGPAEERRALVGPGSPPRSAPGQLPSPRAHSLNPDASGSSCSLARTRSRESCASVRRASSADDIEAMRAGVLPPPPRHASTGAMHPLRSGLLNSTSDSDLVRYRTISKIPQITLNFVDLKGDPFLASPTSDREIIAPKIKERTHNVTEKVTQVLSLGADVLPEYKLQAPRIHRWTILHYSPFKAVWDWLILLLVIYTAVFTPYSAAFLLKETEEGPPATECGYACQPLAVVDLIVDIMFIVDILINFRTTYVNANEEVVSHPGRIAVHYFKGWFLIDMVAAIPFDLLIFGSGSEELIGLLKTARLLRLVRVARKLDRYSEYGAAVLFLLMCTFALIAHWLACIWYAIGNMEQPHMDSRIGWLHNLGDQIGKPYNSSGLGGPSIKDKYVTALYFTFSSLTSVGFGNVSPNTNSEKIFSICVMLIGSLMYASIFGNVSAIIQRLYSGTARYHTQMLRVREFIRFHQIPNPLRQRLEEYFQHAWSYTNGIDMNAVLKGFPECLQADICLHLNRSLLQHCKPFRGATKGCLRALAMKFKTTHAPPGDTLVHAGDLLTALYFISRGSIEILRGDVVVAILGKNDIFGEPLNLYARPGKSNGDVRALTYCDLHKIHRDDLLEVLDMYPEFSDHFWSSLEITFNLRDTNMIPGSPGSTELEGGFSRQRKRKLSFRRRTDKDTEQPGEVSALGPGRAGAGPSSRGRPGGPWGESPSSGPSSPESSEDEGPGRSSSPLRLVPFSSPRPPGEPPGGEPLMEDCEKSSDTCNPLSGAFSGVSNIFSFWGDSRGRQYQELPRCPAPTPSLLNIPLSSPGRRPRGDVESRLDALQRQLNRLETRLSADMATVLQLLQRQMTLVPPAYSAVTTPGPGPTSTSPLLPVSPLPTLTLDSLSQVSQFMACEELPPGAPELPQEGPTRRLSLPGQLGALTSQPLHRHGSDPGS", "assay": "primary screen, population patch clamp on CHO cells stably expressing hERG", "units": {"hERG current change (%, negative = inhibition) at 10uM": "%"}, "values": [{"smiles": "Cc1c(NC(=O)c2c([N+](=O)[O-])cnn2C)c(=O)n(-c2ccccc2)n1C", "hERG current change (%, negative = inhibition) at 10uM": -25.2}, {"smiles": "O=c1cnnc(Nc2ccccc2)[nH]1", "hERG current change (%, negative = inhibition) at 10uM": 21.1}, {"smiles": "O=C(NC(=O)c1cccc(OC(F)(F)C(F)F)c1)OC1CCS(=O)(=O)C1", "note": "(stereo not drawn)", "hERG current change (%, negative = inhibition) at 10uM": -4.68}, {"smiles": "CCOc1cccc(C(=O)Nc2cccc(C(C)=O)c2)c1", "hERG current change (%, negative = inhibition) at 10uM": 4.26}, {"smiles": "COc1cc(NC(=O)CCCNC(=O)c2ccc(Cl)cc2)cc(OC)c1", "hERG current change (%, negative = inhibition) at 10uM": -3.41}, {"smiles": "O=C(NCCCn1ccnc1)C(=O)NCC1OCCN1S(=O)(=O)c1ccc2c(c1)OCCO2", "note": "(stereo not drawn)", "hERG current change (%, negative = inhibition) at 10uM": 5.29}, {"smiles": "CCn1c(CNC(=O)Cc2ccc(OC)cc2)n[nH]c1=S", "hERG current change (%, negative = inhibition) at 10uM": 22.9}, {"smiles": "Cc1cccc(NC(=O)C2Cc3ccccc3CN2C(=O)OCc2ccccc2)c1C", "note": "(stereo not drawn)", "hERG current change (%, negative = inhibition) at 10uM": -7.91}, {"smiles": "O=C(NCc1ccco1)c1ccc(Cn2c(=O)c3sccc3n(Cc3cccc(F)c3)c2=O)cc1", "hERG current change (%, negative = inhibition) at 10uM": 11.2}, {"smiles": "CN(CCc1ccccn1)C(=O)Nc1cccc(Cl)c1", "hERG current change (%, negative = inhibition) at 10uM": 3.98}, {"smiles": "CC(CCc1ccc(O)cc1)NCCC(c1ccccc1)c1ccccc1", "note": "(stereo not drawn)", "hERG current change (%, negative = inhibition) at 10uM": -76.1}, {"smiles": "COc1cc2c(cc1OC)CN(Cc1cc(OC)c(O)c(OC)c1)CC2", "hERG current change (%, negative = inhibition) at 10uM": -14}, {"smiles": "Cc1[nH]c(=O)[nH]c(=O)c1/C=N/NC(=O)[C@H](C)N.Cl", "hERG current change (%, negative = inhibition) at 10uM": 17.9}, {"smiles": "Cc1cc([N+](=O)[O-])ccc1NC(=O)CN1C2CCC1CC(NC(=O)NC13CC4CC(CC(C4)C1)C3)C2", "note": "(stereo not drawn)", "hERG current change (%, negative = inhibition) at 10uM": -14.9}, {"smiles": "COc1cc(NC(=S)NCc2cccnc2)cc(OC)c1", "hERG current change (%, negative = inhibition) at 10uM": -4.94}, {"smiles": "CCCn1c(C)cs/c1=N\\C(=S)Nc1ccccc1", "hERG current change (%, negative = inhibition) at 10uM": 12.8}, {"smiles": "Cc1ccc(S(=O)(=O)Nc2ccc3c(c2)nc(CCN2CCCCC2)n3C)cc1", "hERG current change (%, negative = inhibition) at 10uM": -63.6}, {"smiles": "Fc1ccc(OCCCCCN2CCCC2)cc1", "hERG current change (%, negative = inhibition) at 10uM": 4.62}, {"smiles": "c1ccc(COc2cccc(CN3CCN(c4ccccn4)CC3)c2)cc1", "hERG current change (%, negative = inhibition) at 10uM": -10.1}, {"smiles": "O=C(CSc1nc2c(cnn2-c2cccc(Cl)c2)c(=O)[nH]1)NCCC1=CCCCC1", "hERG current change (%, negative = inhibition) at 10uM": -16.7}, {"smiles": "COc1ccc(OC)c(NC(=O)COc2ccc(S(=O)(=O)NC(C)C)cc2)c1", "hERG current change (%, negative = inhibition) at 10uM": -10.4}, {"smiles": "COc1cnn(-c2ccccc2)c(=O)c1SCc1ccc(Cl)c(Cl)c1", "hERG current change (%, negative = inhibition) at 10uM": -21.1}, {"smiles": "COc1ccc(Cl)cc1C(=O)NNC(=O)COC(=O)CCN=C1NS(=O)(=O)c2ccccc21", "hERG current change (%, negative = inhibition) at 10uM": -7.54}, {"smiles": "O=C(NNC1CC(=O)N(c2ccc3c(c2)OCCO3)C1=O)c1ccc(Cl)cc1", "note": "(stereo not drawn)", "hERG current change (%, negative = inhibition) at 10uM": 10.1}, {"smiles": "CCC(C(=O)Nc1ccccn1)c1ccccc1", "note": "(stereo not drawn)", "hERG current change (%, negative = inhibition) at 10uM": 1.4}, {"smiles": "CSc1ccc(C(=O)C2CCCN(C(=O)c3nonc3C)C2)cc1", "note": "(stereo not drawn)", "hERG current change (%, negative = inhibition) at 10uM": -27.5}, {"smiles": "O=C1C=C(c2ccc3cc[nH]c3c2)C[C@@H](c2ccc3c(c2)OCO3)C1", "hERG current change (%, negative = inhibition) at 10uM": 7.03}, {"smiles": "CSc1cccc(NC(=S)N2CCCN(Cc3cccc(Cl)c3)C2)c1", "hERG current change (%, negative = inhibition) at 10uM": -0.256}, {"smiles": "O=C(NCc1cccnc1)c1nc(-c2ccc(C(F)(F)F)cc2)no1", "hERG current change (%, negative = inhibition) at 10uM": -45.5}, {"smiles": "CCOc1ccc(N(CC(=O)Nc2cc(OC)cc(OC)c2)S(=O)(=O)c2c(C)[nH]c(=O)[nH]c2=O)cc1", "hERG current change (%, negative = inhibition) at 10uM": 20}, {"smiles": "CC(=O)n1cc(CO)c2ccccc21", "hERG current change (%, negative = inhibition) at 10uM": 9.03}, {"smiles": "Cc1[nH]c2ccc(C(=O)NCCCN3CCCCC3)cc2c1C", "hERG current change (%, negative = inhibition) at 10uM": -10.2}, {"smiles": "CCOC(=O)CSc1nnc(CNC(=O)Cc2ccccc2)n1-c1ccccc1OC", "hERG current change (%, negative = inhibition) at 10uM": -2.02}, {"smiles": "O=C1C2CCCN2C(=O)N1CCCCN1CCN(CCO)CC1", "note": "(stereo not drawn)", "hERG current change (%, negative = inhibition) at 10uM": -14.9}, {"smiles": "COc1ccc(-c2cc3ccc(O)cc3oc2=O)cc1", "hERG current change (%, negative = inhibition) at 10uM": 12.4}, {"smiles": "Cc1ccsc1/C=N/n1c(-c2cccnc2)n[nH]c1=S", "hERG current change (%, negative = inhibition) at 10uM": 27.1}, {"smiles": "CC(=O)Nc1ccc2c(c1)OCCO2", "hERG current change (%, negative = inhibition) at 10uM": -0.459}, {"smiles": "CCNC(=O)CN(c1ccc(F)cc1)S(=O)(=O)c1ccc2c(c1)OCCO2", "hERG current change (%, negative = inhibition) at 10uM": 5.86}, {"smiles": "CC(=O)C1=C(C)Nc2ncnn2C1c1ccccc1", "note": "(stereo not drawn)", "hERG current change (%, negative = inhibition) at 10uM": 8.77}, {"smiles": "CC(/C=N/NC(=O)c1ccc(CN2c3cccc4cccc(c34)S2(=O)=O)cc1)c1ccccc1", "note": "(stereo not drawn)", "hERG current change (%, negative = inhibition) at 10uM": 8.83}, {"smiles": "O=C(c1cc([N+](=O)[O-])ccc1N1CCOCC1)N1CCOCC1", "hERG current change (%, negative = inhibition) at 10uM": 18.1}, {"smiles": "CCN1CCN(c2ccc(S(=O)(=O)N3CCCCC3)cc2NC(=O)c2cccc(Cl)c2)CC1", "hERG current change (%, negative = inhibition) at 10uM": -34.6}, {"smiles": "CCOC(=O)c1c(-c2ccccc2)oc2ccc(O)c(CN3CCCC3)c12", "hERG current change (%, negative = inhibition) at 10uM": -64.3}, {"smiles": "CC1(C)CC(NCc2cccc([N+](=O)[O-])c2)CC(C)(C)N1.Cl", "hERG current change (%, negative = inhibition) at 10uM": 23.4}, {"smiles": "Cc1cnc([N+](=O)[O-])n1CCOC(=O)NC(=O)c1cccc(F)c1", "hERG current change (%, negative = inhibition) at 10uM": 9.21}, {"smiles": "CCC(CCC(=O)NNC(=O)Cc1ccc([N+](=O)[O-])cc1)C(=O)O", "note": "(stereo not drawn)", "hERG current change (%, negative = inhibition) at 10uM": 1.5}, {"smiles": "CC(C)OC(=O)C1C2C=CC3(CN(Cc4cccs4)C(=O)C13)O2", "note": "(stereo not drawn)", "hERG current change (%, negative = inhibition) at 10uM": 17.4}, {"smiles": "CCOC(=O)C1C(=O)NC(N2CCCCC2)=NC1C(C)C", "note": "(stereo not drawn)", "hERG current change (%, negative = inhibition) at 10uM": 1.14}, {"smiles": "COc1ccccc1/C=C/C(=O)NCc1cccnc1", "hERG current change (%, negative = inhibition) at 10uM": 0.24}, {"smiles": "CCOC(=O)c1ccc(CNC(=O)Cn2nnc(-c3ccc(C)cc3)n2)o1", "hERG current change (%, negative = inhibition) at 10uM": -10.1}, {"smiles": "Cc1cc(C(=O)OCC(=O)NC2CC2)ccc1[N+](=O)[O-]", "hERG current change (%, negative = inhibition) at 10uM": -12.4}, {"smiles": "Cn1c(SCc2ccccc2)nnc1-c1ccc2c(c1)OCO2", "hERG current change (%, negative = inhibition) at 10uM": -22.7}, {"smiles": "Cc1cc(CN(C)C(=O)CC2C(=O)NCCN2Cc2ccc(-c3ccccc3)cc2)on1", "note": "(stereo not drawn)", "hERG current change (%, negative = inhibition) at 10uM": 14.5}, {"smiles": "C=CCOc1ccc(NC(=O)C2CC(=O)N(C(C)C)C2)cc1", "note": "(stereo not drawn)", "hERG current change (%, negative = inhibition) at 10uM": 11.7}, {"smiles": "COc1cc(/C=N/NC(=O)CSc2ccccn2)ccc1O", "hERG current change (%, negative = inhibition) at 10uM": -1.89}, {"smiles": "O=S1(=O)[C@H]2C[C@@H]3C=C[C@@]2(CN1Cc1ccc(Cl)cc1)O3", "hERG current change (%, negative = inhibition) at 10uM": -8.32}, {"smiles": "CN(C)c1nc(N(C)C)nc(N(C#N)CN2C(=O)c3ccccc3C2=O)n1", "hERG current change (%, negative = inhibition) at 10uM": 1.63}]}]}
